# Reference: the supplement of paper PMC8728848
# Some of the results follow.
# How the values were obtained:
# Assay in all cases: glycan array binding signal (z-score within array); higher = stronger binding
# Settings in all cases: glycan notation: IUPAC condensed, linker removed
# [1] = target: Fuc(a1-2)[Gal(a1-3)]Gal(b1-4)GlcNAc(b1-2)Man(a1-3)[Fuc(a1-2)[Gal(a1-3)]Gal(b1-4)GlcNAc(b1-2)Man(a1-6)]Man(b1-4)GlcNAc(b1-4)[Fuc(a1-6)]GlcNAc
# Procedure, shortened: (§1)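 The binding signal is a Z-score computed within each array. Data were drawn from 3228 arrays in the Consortium for Functional Glycomics database, restricted to those with a known protein sequence. Scores were averaged over arrays of the same protein sequence at different concentrations or buffers, and over linkers, and negative values can be taken as non-binding.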
# [2] = target: Fuc(a1-2)[Gal(a1-3)]Gal(b1-4)GlcNAc(b1-3)GalNAc
# Procedure, shortened: as §1
# [3] = target: Fuc(a1-2)[Gal(a1-3)]Gal(b1-4)GlcNAc(b1-3)[Fuc(a1-2)[Gal(a1-3)]Gal(b1-4)GlcNAc(b1-6)]GalNAc
# Procedure, shortened: as §1
# [4] = target: Fuc(a1-2)[Gal(a1-3)]Gal(b1-4)GlcNAc(b1-6)GalNAc
# Procedure, shortened: as §1
# [5] = target: Fuc(a1-2)[Gal(a1-3)]Gal(b1-4)[Fuc(a1-3)]Glc
# Procedure, shortened: as §1
# [6] = target: Fuc(a1-2)[Gal(a1-3)]Gal(b1-4)[Fuc(a1-3)]GlcNAc
# Procedure, shortened: as §1
# [7] = target: Fuc(a1-2)[Gal(a1-3)]Gal(b1-4)[Fuc(a1-3)]GlcNAc(b1-3)GalNAc
# Procedure, shortened: as §1
# [8] = target: Fuc(a1-2)[Gal(a1-4)]Gal(b1-4)GlcNAc
# Procedure, shortened: as §1
# [9] = target: Fuc(a1-2)[GalNAc(a1-3)]Gal
# Procedure, shortened: as §1
# [10] = target: Fuc(a1-2)[GalNAc(a1-3)]Gal(b1-3)GalNAc(a1-3)[Fuc(a1-2)]Gal(b1-4)GlcNAc
# Procedure, shortened: as §1
# [11] = target: Fuc(a1-2)[GalNAc(a1-3)]Gal(b1-3)GalNAc(b1-3)Gal(a1-4)Gal(b1-4)Glc
# Procedure, shortened: as §1
# [12] = target: Fuc(a1-2)[GalNAc(a1-3)]Gal(b1-3)GlcNAc
# Procedure, shortened: as §1
# [13] = target: Fuc(a1-2)[GalNAc(a1-3)]Gal(b1-3)GlcNAc(b1-2)Man(a1-3)[Fuc(a1-2)[GalNAc(a1-3)]Gal(b1-3)GlcNAc(b1-2)Man(a1-6)]Man(b1-4)GlcNAc(b1-4)GlcNAc
# Procedure, shortened: as §1
# [14] = target: Fuc(a1-2)[GalNAc(a1-3)]Gal(b1-3)GlcNAc(b1-2)Man(a1-3)[Fuc(a1-2)[GalNAc(a1-3)]Gal(b1-3)GlcNAc(b1-2)Man(a1-6)]Man(b1-4)GlcNAc(b1-4)[Fuc(a1-6)]GlcNAc
# Procedure, shortened: as §1
# [15] = target: Fuc(a1-2)[GalNAc(a1-3)]Gal(b1-3)GlcNAc(b1-3)GalNAc
# Procedure, shortened: as §1
# [16] = target: Fuc(a1-2)[GalNAc(a1-3)]Gal(b1-3)GlcNAc(b1-6)GalNAc
# Procedure, shortened: as §1
# [17] = target: Fuc(a1-2)[GalNAc(a1-3)]Gal(b1-4)Glc
# Procedure, shortened: as §1
# [18] = target: Fuc(a1-2)[GalNAc(a1-3)]Gal(b1-4)GlcNAc
# Procedure, shortened: as §1
# [19] = target: Fuc(a1-2)[GalNAc(a1-3)]Gal(b1-4)GlcNAc(b1-2)Man
# Procedure, shortened: as §1
# [20] = target: Fuc(a1-2)[GalNAc(a1-3)]Gal(b1-4)GlcNAc(b1-2)Man(a1-3)[Fuc(a1-2)[GalNAc(a1-3)]Gal(b1-4)GlcNAc(b1-2)Man(a1-6)]Man(b1-4)GlcNAc(b1-4)GlcNAc
# Procedure, shortened: as §1
# [21] = target: Fuc(a1-2)[GalNAc(a1-3)]Gal(b1-4)GlcNAc(b1-2)Man(a1-3)[Fuc(a1-2)[GalNAc(a1-3)]Gal(b1-4)GlcNAc(b1-2)Man(a1-6)]Man(b1-4)GlcNAc(b1-4)[Fuc(a1-6)]GlcNAc
# Procedure, shortened: as §1
# [22] = target: Fuc(a1-2)[GalNAc(a1-3)]Gal(b1-4)GlcNAc(b1-3)Gal(b1-4)GlcNAc
# Procedure, shortened: as §1
# [23] = target: Fuc(a1-2)[GalNAc(a1-3)]Gal(b1-4)GlcNAc(b1-3)Gal(b1-4)GlcNAc(b1-3)Gal(b1-4)GlcNAc
# Procedure, shortened: as §1
# [24] = target: Fuc(a1-2)[GalNAc(a1-3)]Gal(b1-4)GlcNAc(b1-3)GalNAc
# Procedure, shortened: as §1
# [25] = target: Fuc(a1-2)[GalNAc(a1-3)]Gal(b1-4)GlcNAc(b1-3)[Fuc(a1-2)[GalNAc(a1-3)]Gal(b1-4)GlcNAc(b1-6)]GalNAc
# Procedure, shortened: as §1
# [26] = target: Fuc(a1-2)[GalNAc(a1-3)]Gal(b1-4)GlcNAc(b1-6)GalNAc
# Procedure, shortened: as §1
# [27] = target: Fuc(a1-2)[GalNAc(a1-3)]Gal(b1-4)[Fuc(a1-3)]GlcNAc
# Procedure, shortened: as §1
# [28] = target: Fuc(a1-2)[GalNAc(a1-3)]Gal(b1-4)[Fuc(a1-3)]GlcNAc(b1-3)GalNAc
# Procedure, shortened: as §1
# [29] = target: Fuc(a1-2)[GalNAc(a1-4)]Gal(b1-4)GlcNAc
# Procedure, shortened: as §1
# [30] = target: Fuc(a1-2)[GalNAc(b1-3)]Gal
# Procedure, shortened: as §1
# [31] = target: Fuc(a1-3)GlcNAc
# Procedure, shortened: as §1
# [32] = target: Fuc(a1-3)[Gal(b1-4)]Glc6S
# Procedure, shortened: as §1
# [33] = target: Fuc(a1-3)[Gal(b1-4)]GlcNAc
# Procedure, shortened: as §1
# [34] = target: Fuc(a1-3)[Gal(b1-4)]GlcNAc(b1-2)Man
# Procedure, shortened: as §1
# [35] = target: Fuc(a1-3)[Gal(b1-4)]GlcNAc(b1-2)Man(a1-3)[Fuc(a1-3)[Gal(b1-4)]GlcNAc(b1-2)Man(a1-6)]Man(b1-4)GlcNAc(b1-4)GlcNAc
# Procedure, shortened: as §1
# [36] = target: Fuc(a1-3)[Gal(b1-4)]GlcNAc(b1-2)Man(a1-3)[Fuc(a1-3)[Gal(b1-4)]GlcNAc(b1-2)Man(a1-6)]Man(b1-4)GlcNAc(b1-4)[Fuc(a1-6)]GlcNAc
# Procedure, shortened: as §1
# [37] = target: Fuc(a1-3)[Gal(b1-4)]GlcNAc(b1-3)Gal(b1-3)[Fuc(a1-4)]GlcNAc
# Procedure, shortened: as §1
# [38] = target: Fuc(a1-3)[Gal(b1-4)]GlcNAc(b1-3)Gal(b1-4)[Fuc(a1-3)]GlcNAc
# Procedure, shortened: as §1
# [39] = target: Fuc(a1-3)[Gal(b1-4)]GlcNAc(b1-3)Gal(b1-4)[Fuc(a1-3)]GlcNAc(b1-3)Gal(b1-4)[Fuc(a1-3)]GlcNAc
# Procedure, shortened: as §1
# [40] = target: Fuc(a1-3)[Gal(b1-4)]GlcNAc(b1-3)GalNAc
# Procedure, shortened: as §1
# [41] = target: Fuc(a1-3)[Gal(b1-4)]GlcNAc(b1-6)GalNAc
# Procedure, shortened: as §1
# [42] = target: Fuc(a1-3)[Gal(b1-4)]GlcNAc(b1-6)[Gal(b1-3)GlcNAc(b1-3)]Gal(b1-4)Glc
# Procedure, shortened: as §1
# [43] = target: Fuc(a1-3)[Gal(b1-4)]GlcNAc6S
# Procedure, shortened: as §1
# [44] = target: Fuc(a1-3)[Gal3S(b1-4)]Glc
# Procedure, shortened: as §1
# [45] = target: Fuc(a1-3)[Gal3S(b1-4)]GlcNAc
# Procedure, shortened: as §1
# [46] = target: Fuc(a1-3)[Gal3S(b1-4)]GlcNAc6S
# Procedure, shortened: as §1
# [47] = target: Fuc(a1-3)[GalNAc(b1-4)]GlcNAc
# Procedure, shortened: as §1
# [48] = target: Fuc(a1-3)[GalNAc(b1-4)]GlcNAc6S
# Procedure, shortened: as §1
# [49] = target: Fuc(a1-4)GlcNAc
# Procedure, shortened: as §1
# [50] = target: Fuc(b1-3)GlcNAc
# Procedure, shortened: as §1
# [51] = target: Gal(a1-2)Gal
# Procedure, shortened: as §1
# [52] = target: Gal(a1-3)Gal
# Procedure, shortened: as §1
# [53] = target: Gal(a1-3)Gal(b1-3)GlcNAc
# Procedure, shortened: as §1
# [54] = target: Gal(a1-3)Gal(b1-3)GlcNAc(b1-2)Man
# Procedure, shortened: as §1
# [55] = target: Gal(a1-3)Gal(b1-3)GlcNAc(b1-2)Man(a1-3)[Gal(a1-3)Gal(b1-3)GlcNAc(b1-2)Man(a1-6)]Man(b1-4)GlcNAc(b1-4)GlcNAc
# Procedure, shortened: as §1
# [56] = target: Gal(a1-3)Gal(b1-3)GlcNAc(b1-3)GalNAc
# Procedure, shortened: as §1
# [57] = target: Gal(a1-3)Gal(b1-3)GlcNAc(b1-6)GalNAc
# Procedure, shortened: as §1
# [58] = target: Gal(a1-3)Gal(b1-3)[Fuc(a1-4)]GlcNAc(b1-2)Man(a1-3)[Gal(a1-3)Gal(b1-3)[Fuc(a1-4)]GlcNAc(b1-2)Man(a1-6)]Man(b1-4)GlcNAc(b1-4)GlcNAc
# Procedure, shortened: as §1
# [59] = target: Gal(a1-3)Gal(b1-4)Glc
# Procedure, shortened: as §1
# [60] = target: Gal(a1-3)Gal(b1-4)GlcNAc
# Procedure, shortened: as §1
binder,measurement,setting,value
Mg3lysM (Mycosphaerella graminicola) (protein) APQNPPTSCSAAPQPTGTGSPGTVCGSTTFTNYTVKAGDTLGAIAKQYNSGVCDIAKVNGIDNPDYIKPDQVLSIPANCVTPDNTSCVKPVPVITNTCVLGVGSTYTVKSGDSFSAIATSFNITLASLEARNPQIPNYDLIFPGQVINTPLCPNSVCDSIGTYVIESGDIFYNLAQSNNVTVGQLESLNVNVNVTDIHPGDIIILPHNCHNITASA,glycan array binding signal (z-score),[1],-0.109
same,glycan array binding signal (z-score),[2],-0.118
same,glycan array binding signal (z-score),[3],-0.1
same,glycan array binding signal (z-score),[4],-0.03
same,glycan array binding signal (z-score),[5],-0.118
same,glycan array binding signal (z-score),[6],-0.092
same,glycan array binding signal (z-score),[7],-0.106
same,glycan array binding signal (z-score),[8],-0.055
same,glycan array binding signal (z-score),[9],-0.111
same,glycan array binding signal (z-score),[10],-0.066
same,glycan array binding signal (z-score),[11],0.006
same,glycan array binding signal (z-score),[12],-0.108
same,glycan array binding signal (z-score),[13],-0.07
same,glycan array binding signal (z-score),[14],-0.077
same,glycan array binding signal (z-score),[15],-0.073
same,glycan array binding signal (z-score),[16],-0.202
same,glycan array binding signal (z-score),[17],-0.072
same,glycan array binding signal (z-score),[18],-0.074
same,glycan array binding signal (z-score),[19],-0.184
same,glycan array binding signal (z-score),[20],-0.021
same,glycan array binding signal (z-score),[21],0.01
same,glycan array binding signal (z-score),[22],0.011
same,glycan array binding signal (z-score),[23],0.065
same,glycan array binding signal (z-score),[24],-0.059
same,glycan array binding signal (z-score),[25],-0.102
same,glycan array binding signal (z-score),[26],-0.108
same,glycan array binding signal (z-score),[27],-0.123
same,glycan array binding signal (z-score),[28],-0.129
same,glycan array binding signal (z-score),[29],-0.016
same,glycan array binding signal (z-score),[30],-0.192
same,glycan array binding signal (z-score),[31],-0.088
same,glycan array binding signal (z-score),[32],0.003
same,glycan array binding signal (z-score),[33],-0.067
same,glycan array binding signal (z-score),[34],-0.12
same,glycan array binding signal (z-score),[35],0.048
same,glycan array binding signal (z-score),[36],-0.018
same,glycan array binding signal (z-score),[37],0.004
same,glycan array binding signal (z-score),[38],-0.081
same,glycan array binding signal (z-score),[39],-0.075
same,glycan array binding signal (z-score),[40],-0.11
same,glycan array binding signal (z-score),[41],-0.105
same,glycan array binding signal (z-score),[42],-0.125
same,glycan array binding signal (z-score),[43],0.023
same,glycan array binding signal (z-score),[44],-0.089
same,glycan array binding signal (z-score),[45],-0.05
same,glycan array binding signal (z-score),[46],-0.107
same,glycan array binding signal (z-score),[47],-0.1
same,glycan array binding signal (z-score),[48],0.075
same,glycan array binding signal (z-score),[49],-0.083
same,glycan array binding signal (z-score),[50],-0.051
same,glycan array binding signal (z-score),[51],-0.177
same,glycan array binding signal (z-score),[52],-0.044
same,glycan array binding signal (z-score),[53],-0.117
same,glycan array binding signal (z-score),[54],0.01
same,glycan array binding signal (z-score),[55],-0.098
same,glycan array binding signal (z-score),[56],-0.004
same,glycan array binding signal (z-score),[57],-0.03
same,glycan array binding signal (z-score),[58],-0.042
same,glycan array binding signal (z-score),[59],0.027
same,glycan array binding signal (z-score),[60],-0.077
